{
  "source": "PubChem BioAssay AID1347120",
  "about": "(National Center for Advancing Translational Sciences (NCATS), 2019)",
  "note": "Values joined by “and” are separate entries in the source; they are usually repeats but may differ in a detail not shown here. Equal entries are not always repeated. Among all 390,000 compounds or so, about 930 (0.24%) were called active. Inconclusive means that the source gave no clear call. Such entries were picked first, then a sample of the others. Calls follow the shape of the dose curve; as a rule, active = well fitted activation curve with a large enough effect; inconclusive = small, poorly fitted or top-dose-only effect; inactive = no such curve, though single readings can be large or run the other way. Where the call is inconclusive, the potency comes from a doubtful curve fit. Potency is read from the fitted curve at half-maximal effect; tags tell the direction and shape of the fitted curve.",
  "data": [
    {"experiment": "qHTS for Suppressors of FUS Proteinopathy: Primary screen using FUS-linked yeast assay; also: nearly all actives have a fitted effect of over 55% in size", "settings": "S. cerevisiae FUS-expressing, OD600, 24 h; Potency: growth rescue; series mostly up to 76.6 µM", "procedure,_shortened": "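Restored growth of FUS-toxic S. cerevisiae, read as 600 nm absorbance after 24 h at 30C in galactose medium (starting OD 0.005). Controls CP55940 and DMSO.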", "values": [
      {"smiles": "CCOC(=O)c1cc(NC(=O)c2ccc(OC)cc2)c(=O)n2c1oc1ccc(Cl)cc12", "Potency": "inactive"},
      {"smiles": "CCn1c(CNC(=O)C23CC4CC(CC(C4)C2)C3)nnc1SCC(=O)Nc1ccc(F)cc1", "Potency": "inconclusive: 3.16 µM [activator, full curve]"},
      {"smiles": "CCOC(=O)[C@]12CCC=C1N(Cc1cccc3ccccc13)C(=O)[C@H](CC(=O)NCc1cccs1)C2", "Potency": "inconclusive: 35.5 µM [activator, single point]"},
      {"smiles": "O=C(c1ccc(CNc2c(N3CCCC3)c(=O)c2=O)cc1)N1CC=C(c2ccccc2)CC1", "Potency": "inconclusive: 14.1 µM [activator, partial curve, poor fit]"},
      {"smiles": "COc1ccc(S[C@]2(C(=O)N3CCN(c4ncccn4)CC3)CC(=O)N(C(=O)Nc3ccc(C)c(Cl)c3)[C@@H]2c2ccc(OC)cc2)cc1", "Potency": "inconclusive: 31.6 µM [activator, single point]"},
      {"smiles": "COc1ccc(C2C(C(=O)c3cccs3)=C(O)C(=O)N2c2cccc(C)n2)cc1", "note": "(stereo unspecified)", "Potency": "inconclusive: 31.6 µM [activator, single point]"},
      {"smiles": "COc1ccccc1N1CCN(C(=O)c2ccc(-c3ccc(Cl)cc3)o2)CC1", "Potency": "inconclusive: 31.6 µM [activator, partial curve]"},
      {"smiles": "CC(=O)N1c2ccc(S(=O)(=O)N3CCC(C(=O)N4CCN(c5ccccc5)CC4)CC3)cc2CC1C", "note": "(stereo unspecified)", "Potency": "inconclusive: 8.91 µM [activator, partial curve]"},
      {"smiles": "NC1=NC[C@H](CC2CCCCC2)N1CCc1cc(C(F)(F)F)cc(C(F)(F)F)c1", "Potency": "inconclusive: 31.6 µM [activator, partial curve, poor fit]"},
      {"smiles": "COc1ccc(S(=O)(=O)NCCCCOc2ccc(Cl)cc2)cc1", "Potency": "inconclusive: 25.1 µM [activator, single point]"},
      {"smiles": "CSc1ccccc1NC(=O)CN(C)CC(=O)c1[nH]c(C)c(C(C)=O)c1C", "Potency": "inactive"},
      {"smiles": "N#Cc1cc2c(=O)n3ccccc3nc2n(CCCN2CCOCC2)c1=O", "Potency": "inactive"},
      {"smiles": "Cc1nc2c(-c3ccc(F)cc3)c(C)nn2c(C)c1CCC(=O)N1CCN(c2ccc(F)cc2)CC1", "Potency": "inconclusive: 50.1 µM [activator, single point]"},
      {"smiles": "O=C(/C=C/c1ccccc1)N1CCN(c2ccc([N+](=O)[O-])c(N3CCOCC3)c2)CC1", "Potency": "inconclusive: 50.1 µM [activator, single point]"},
      {"smiles": "CCCn1cc(S(=O)(=O)c2cc(C)ccc2C)c(=O)c2cc(F)c(N3CCCCCC3)cc21", "Potency": "inconclusive: 50.1 µM [activator, single point]"},
      {"smiles": "CCN1C(=O)c2ccccc2Sc2ccc(NC(=O)Cc3ccc(OC)cc3)cc21", "Potency": "inconclusive: 28.2 µM [activator, partial curve, poor fit]"},
      {"smiles": "COC(=O)c1cc(S(=O)(=O)N2CCN(c3cccc(C)c3C)CC2)c[nH]1", "Potency": "inconclusive: 39.8 µM [activator, single point]"},
      {"smiles": "Cc1cc(C)c2c(=O)cc(C(=O)Nc3ccc(S(=O)(=O)Nc4onc(C)c4C)cc3)oc2c1", "Potency": "inconclusive: 28.2 µM [activator, single point]"},
      {"smiles": "Cc1ccc(NC(=O)Nc2ccc3c(c2)[C@]2(CC(=O)N(CC(C)C)C2c2ccccc2)C(=O)N3C)cc1Cl", "note": "(stereo partly specified)", "Potency": "inconclusive: 31.6 µM [activator, single point]"},
      {"smiles": "COc1ccccc1N1CCN(CCN2C(=O)C3CCCCN3C2=O)CC1", "note": "(stereo unspecified)", "Potency": "inactive"},
      {"smiles": "CCC(C)NC(=O)c1ccc2c(c1)N=C(C)c1cc(C)ccc1S2", "note": "(stereo unspecified)", "Potency": "inconclusive: 35.5 µM [activator, single point]"},
      {"smiles": "CCOC(=O)C1CCCN(Cc2nc(N)nc(Nc3ccc(C)cc3)n2)C1", "note": "(stereo unspecified)", "Potency": "inconclusive: 25.1 µM [activator, single point]"},
      {"smiles": "Cc1ccc(CSc2nc3c(c(SCC(=O)O)n2)CCCC3)cc1", "Potency": "inactive"},
      {"smiles": "COc1ccc(-n2c(Cc3cccn3C)nnc2SCC(=O)Nc2ccccc2)cc1", "Potency": "inconclusive: 22.4 µM [activator, partial curve]"},
      {"smiles": "C[C@@H]1CN([C@@H](C)CO)C(=O)Cc2cc(NC(=O)Nc3ccc(F)cc3)ccc2O[C@@H]1CN(C)Cc1ccc(Cl)c(Cl)c1", "Potency": "inconclusive: 14.1 µM [activator, partial curve]"},
      {"smiles": "COc1cccc(Nc2n[nH]c(=S)s2)c1", "Potency": "inconclusive: 15.8 µM [activator, partial curve, poor fit]"},
      {"smiles": "CCOC(=O)C1=C(COC(=O)[C@H](C)NS(=O)(=O)c2ccc(NC(C)=O)cc2)NC(=O)NC1C", "note": "(stereo partly specified)", "Potency": "inactive"},
      {"smiles": "CN1C(=O)Cc2cc(S(=O)(=O)CCC(=O)N3CCN(c4cccc(Cl)c4)CC3)ccc21", "Potency": "inconclusive: 39.8 µM [activator, single point]"},
      {"smiles": "CCC[C@H]1[C@@H](OC(=O)NC(CC)CC)CC[C@@]23CCCN2C(=O)CCC[C@@H]13", "Potency": "inactive"},
      {"smiles": "Cc1cc(C(=O)OCC(=O)Nc2c(F)cccc2F)c(C)n1-c1ccccc1", "Potency": "inconclusive: 50.1 µM [activator, single point]"},
      {"smiles": "Cc1ccc(CNC(=O)c2cccc3c2C(=O)c2ccc(N4CCOCC4)cc2S3(=O)=O)cc1", "Potency": "inconclusive: 28.2 µM [activator, single point]"},
      {"smiles": "CC(CC(=O)Nc1ccc2c(c1)c(=O)n(C)n2-c1cccs1)c1ccccc1", "note": "(stereo unspecified)", "Potency": "inactive"},
      {"smiles": "COc1cccc(NC(=O)c2nnn(Cc3ccc(OC)c(Br)c3)c2N)c1", "Potency": "inactive"},
      {"smiles": "C[C@H](NC(=O)c1nc[nH]c1C(=O)NCC(=O)OCc1ccccc1)c1ccccc1", "Potency": "inconclusive: 31.6 µM [activator, single point]"},
      {"smiles": "CCOC(=O)C1=CCN(S(=O)(=O)c2ccccc2)C1c1ccc(C)cc1", "note": "(stereo unspecified)", "Potency": "inconclusive: 50.1 µM [activator, single point]"},
      {"smiles": "COc1ccc(-c2nnc3n2N=C(c2cccc([N+](=O)[O-])c2)CS3)cc1", "Potency": "inactive"},
      {"smiles": "CCOC(=O)C1=C(C)N(C[C@@H]2CC[C@@H](Cc3ccc(-c4ccccc4)cc3)O2)C(=O)NC1c1ccc([N+](=O)[O-])cc1", "note": "(stereo partly specified)", "Potency": "inconclusive: 17.8 µM [activator, single point]"},
      {"smiles": "CC(C)COc1ccc(C(=O)OCCN2CCOCC2)c(O)c1", "Potency": "inconclusive: 7.94 µM [activator, single point]"},
      {"smiles": "Cc1ccc(C(=O)Nc2c(C)cc(C)c3cccnc23)cc1", "Potency": "inconclusive: 10 µM [activator, single point]"},
      {"smiles": "Cc1csc(N=Nc2ccc(N(C)C)cc2)[n+]1[O-]", "Potency": "inconclusive: 20 µM [activator, partial curve, poor fit]"},
      {"smiles": "CCCn1nc(C(=O)NC2CC2)c2ccccc2c1=O", "Potency": "inactive"},
      {"smiles": "COc1ccc(-c2cc(OC(=O)c3cccc(C)c3)c3c(C)oc(C)c3c(=O)c2)cc1", "Potency": "inconclusive: 39.8 µM [activator, single point]"},
      {"smiles": "O=C(COc1ccc(Cl)cc1)NCc1n[nH]c(=O)c2ccccc12", "Potency": "inactive"},
      {"smiles": "C=CC[C@@H](CC(=O)N[C@@H](CO)Cc1ccccc1)C(=O)N[C@H](C)COC(=O)[C@@H](CC=C)Cc1ccc(F)cc1", "Potency": "inactive"},
      {"smiles": "COCCN(C(=O)COC(=O)c1ccccc1Cc1ccccc1)c1c(N)n(Cc2ccccc2)c(=O)[nH]c1=O", "Potency": "inconclusive: 15.8 µM [activator, partial curve]"},
      {"smiles": "CC(=O)C1=C(c2ccc(Cl)c(Cl)c2)N(C(C)=O)n2cnnc2S1", "Potency": "inactive"},
      {"smiles": "O=C1CN(C(=O)COc2ccc(Cl)cc2)C(c2ccc(F)cc2)c2cc(Br)ccc2N1", "note": "(stereo unspecified)", "Potency": "inactive"},
      {"smiles": "CCC1=C(OC(=O)N(CC)CC)N2C(=O)OC(=NCCc3c[nH]c4ccccc34)[C@]2(Cc2ccccc2)[C@H]2C1=CC[C@H]1C(=O)N(c3ccccc3)C(=O)[C@H]12", "Potency": "inconclusive: 35.5 µM [activator, single point]"},
      {"smiles": "CCCCOc1ccc(C(=O)NCCc2ccccc2)cc1", "Potency": "inactive"},
      {"smiles": "CCOc1ccc(NC(=O)CSC2=Nc3ccccc3C3=NC(Cc4ccccc4)C(=O)N23)cc1", "note": "(stereo unspecified)", "Potency": "inconclusive: 35.5 µM [activator, single point]"},
      {"smiles": "Cc1ccc(C(=O)N2CCN(c3ccccc3Cl)CC2)cc1[N+](=O)[O-]", "Potency": "inconclusive: 50.1 µM [activator, single point]"},
      {"smiles": "CCc1ccc(S(=O)(=O)c2cn(C)c3cc(F)c(F)cc3c2=O)cc1", "Potency": "inactive"},
      {"smiles": "COc1cc(CNc2ccc(O)cc2)cc(Br)c1OCc1ccccc1F", "Potency": "inactive"},
      {"smiles": "COc1ccc([C@H]2CC(=O)C=C(c3ccc(Cl)c(C(F)(F)F)c3)C2)cc1OC", "Potency": "inconclusive: 22.4 µM [activator, single point]"},
      {"smiles": "O=C(CNC(=O)c1ccccc1F)OCc1cc(=O)n2nc(C3CC3)sc2n1", "Potency": "inactive"},
      {"smiles": "CCCCC(=O)OCC(=O)N1N=C(c2c[nH]c3ccccc23)C(O)C1c1ccc(OC)cc1", "note": "(stereo unspecified)", "Potency": "inconclusive: 28.2 µM [activator, single point]"},
      {"smiles": "Cc1cccc(NC(=O)CSc2nc3ccccc3c3nc(CCc4c(C)n[nH]c4C)nn23)c1", "Potency": "inconclusive: 15.8 µM [activator, partial curve, poor fit] and inconclusive: 39.8 µM [activator, single point]"},
      {"smiles": "COc1ccccc1CCNC(=O)C(=O)NCC(c1ccco1)S(=O)(=O)c1ccccc1", "note": "(stereo unspecified)", "Potency": "inconclusive: 28.2 µM [activator, single point]"},
      {"smiles": "NS(=O)(=O)c1ccc(CNC(=O)c2ccc(Cl)c(S(=O)(=O)NCc3ccccc3)c2)cc1", "Potency": "inactive"},
      {"smiles": "O=c1[nH]c(C2CCN(S(=O)(=O)c3ccc(C(F)(F)F)cc3)CC2)nc2c1nnn2Cc1ccc(F)cc1", "Potency": "inconclusive: 28.2 µM [activator, partial curve, poor fit]"},
      {"smiles": "COc1ccccc1-c1nc(S(=O)(=O)c2ccccc2)c(N2CCC(C)CC2)o1", "Potency": "inactive"}
    ]}
  ]
}
